Source: PubChem BioAssay AID1460 (National Center for Advancing Translational Sciences (NCATS), 2008)
Among all 270,000 compounds or so, about 5,800 (2.1%) were called active. Inconclusive results, whose numbers are uncertain, are shown with a selection of clear calls. Calls follow the shape of the dose curve; as a rule, active = well fitted inhibition curve with a large enough effect; inconclusive = small, poorly fitted or top-dose-only effect; inactive = flat fitted curve, though single readings scatter. Potencies of inconclusive entries are doubtful fits and often do not repeat.

target: Microtubule-associated protein tau (Homo sapiens) (UniProt P10636); test: qHTS for Inhibitors of Tau Fibril Formation, Thioflavin T Binding; settings: recombinant tau K18 P301L, heparin-induced fibrillization, ThT fluorescence; series mostly up to 57.4 µM; also: nearly all actives have a fitted effect of over 55% in size
Sequence of UniProt P10636 (P10636 whole entry, looked up): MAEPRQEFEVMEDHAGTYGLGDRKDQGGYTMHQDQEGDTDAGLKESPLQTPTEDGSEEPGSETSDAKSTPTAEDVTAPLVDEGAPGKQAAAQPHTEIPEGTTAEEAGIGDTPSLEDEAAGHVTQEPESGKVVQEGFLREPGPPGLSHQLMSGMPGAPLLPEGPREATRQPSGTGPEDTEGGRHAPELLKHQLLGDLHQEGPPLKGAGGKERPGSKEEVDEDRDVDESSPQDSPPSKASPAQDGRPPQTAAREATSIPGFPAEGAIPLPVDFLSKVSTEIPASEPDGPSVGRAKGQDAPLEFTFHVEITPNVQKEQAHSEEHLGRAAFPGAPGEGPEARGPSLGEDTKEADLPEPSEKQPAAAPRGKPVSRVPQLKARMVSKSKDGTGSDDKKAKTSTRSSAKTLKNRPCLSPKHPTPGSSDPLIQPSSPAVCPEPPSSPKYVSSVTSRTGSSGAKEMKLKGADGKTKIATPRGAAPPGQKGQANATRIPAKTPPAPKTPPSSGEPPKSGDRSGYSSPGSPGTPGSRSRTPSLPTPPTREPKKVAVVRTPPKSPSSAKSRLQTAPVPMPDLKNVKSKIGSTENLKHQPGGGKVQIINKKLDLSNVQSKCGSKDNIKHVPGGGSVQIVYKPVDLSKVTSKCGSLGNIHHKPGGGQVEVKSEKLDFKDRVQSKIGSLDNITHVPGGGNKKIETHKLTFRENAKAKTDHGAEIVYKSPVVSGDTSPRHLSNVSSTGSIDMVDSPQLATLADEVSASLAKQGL
Summary of the method: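 Using a mix of unlabeled (15 uM) and Alexa 594-labeled (0.24 uM) tau K18 P301L, heparin-triggered fibrillization over 6 hr at 37 C was scored by ThT fluorescence.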
Potency is read from the fitted curve at half-maximal effect; tags tell the direction and shape of the fitted curve.

Row | SMILES | Potency
1 | O=C(CCNc1cccc(Cl)c1)c1cccs1 | inconclusive: 31.6 µM [inhibitor, partial curve]
2 | COc1ccc(C(=O)NCCc2cn3ccc(C)cc3n2)cc1 | inconclusive: 4.47 µM [inhibitor, partial curve]
3 | Cc1ccc(C)c(N2CCN(C(=O)CN3C(=O)COc4ccc(S(=O)(=O)N5CCCCCC5)cc43)CC2)c1 | inconclusive: 3.55 µM [inhibitor, single point]
4 | CCOC(=O)c1c(NC(=O)c2noc3c2CC(C(C)(C)C)CC3)sc2c1CCCC2 (stereo not given) | inconclusive: 39.8 µM [inhibitor, single point]
5 | CCOC(=O)N1CCC(n2c(SCC(=O)N3CCCC3)nc3ccccc3c2=O)CC1 | inconclusive: 11.2 µM [inhibitor, partial curve]
6 | Cc1ccc(C(=O)NCC(=O)OCC(=O)c2ccc3c(c2)OCCO3)cc1C | inconclusive: 28.2 µM [inhibitor, single point]
7 | COc1ccc(Cl)cc1NS(=O)(=O)c1cc(-c2cc(C)no2)ccc1C | inactive
8 | CC(NC(=O)Cn1ncc2c3ccccc3n(Cc3ccc(F)cc3)c2c1=O)c1ccccc1 (stereo not given) | inactive
9 | Cn1cc([N+](=O)[O-])c(C(=O)Nc2ccc(-c3nc4ccccc4o3)cc2)n1 | inconclusive: 1.41 µM [inhibitor, full curve]
10 | CCOC(=O)c1ccc(NC(=O)C2Cc3ccccc3CN2S(=O)(=O)c2ccc(Cl)cc2)cc1 (stereo not given) | inactive
11 | O=C(CNC(=O)c1cccs1)N/N=C/c1c[nH]c2ccccc12 | inconclusive: 14.1 µM [inhibitor, single point]
12 | O=C(Nc1cc2c3c(c1)C1CCCC1CN3CC1CCCC21)c1ccccc1 (stereo not given) | inconclusive: 20 µM [inhibitor, partial curve]
13 | CCOC(=O)c1nnc2c(-c3ccc(OC)cc3)c(C)nn2c1N | inconclusive: 3.98 µM [inhibitor, full curve]
14 | Cc1ccc(N2Cc3ccccc3C2=S)cc1 | inconclusive: 11.2 µM [inhibitor, partial curve]
15 | CNc1nc(-c2ccc3c(c2)CCN3C(=O)c2ccccc2F)cs1 | inconclusive: 15.8 µM [inhibitor, partial curve]
16 | C=CCNC(=S)NNC(=O)COc1ccc2cc(Br)ccc2c1 | inactive
17 | CCCCNC(=O)CSc1nc2ccc(Nc3nc(N4CCOCC4)nc(N4CCOCC4)n3)cc2s1 | inconclusive: 14.1 µM [inhibitor, partial curve]
18 | CC(/C=C/c1ccco1)=N\NC(=O)COc1ccc(C)c(C)c1 | inconclusive: 11.2 µM [inhibitor, partial curve]
19 | Cc1nc2c(C(=O)NCc3ccccc3Cl)cnn2c(C)c1Cc1c(F)cccc1Cl | inactive
20 | Cc1ccn2cc(-c3ccc(Br)cc3)nc2c1 | inactive
21 | CCOc1nc(-c2ccc(OC)cc2)ccc1-c1noc(C)n1 | inconclusive: 7.08 µM [inhibitor, full curve, poor fit]
22 | CCOc1ccc(S(=O)(=O)Nc2ccc3oc(C)c(C(=O)OCCOC)c3c2)cc1 | inactive
23 | CC(C)n1c(O)c(N=NC(=O)CNC(=O)CCc2ccccc2)c2ccccc21 | inconclusive: 15.8 µM [inhibitor, partial curve]
24 | Oc1ccc(N=Nc2nc(-c3ccccc3)c(-c3ccccc3)[nH]2)cc1 | active: 4.47 µM

Row | SMILES | Potency
25 | Cc1ccc(-n2c(CSc3nc(C)cc(C)n3)n[nH]c2=S)cc1 | inactive
26 | CC(=O)c1cccc(-n2c(CCC(=O)O)ccc2-c2cccs2)c1 | inconclusive: 22.4 µM [inhibitor, partial curve]
27 | Cc1ccccc1OCC(=O)NC(=S)Nc1ccc(N2CCOCC2)c(Cl)c1 | inconclusive: 1.41 µM [inhibitor, full curve]
28 | COc1ccc(OC)c(C2CC(=O)c3c([nH]c(C(=O)OCC4CCCCC4)c3C)C2)c1 (stereo not given) | inconclusive: 15.8 µM [inhibitor, partial curve]
29 | C#CCOC(=O)Nc1cccn(Cc2c(Cl)cccc2Cl)c1=O | inactive
30 | Cc1cc(OCC(=O)Nc2cnn(CCCC(=O)O)c2)ccc1[N+](=O)[O-] | inconclusive: 22.4 µM [inhibitor, partial curve]
31 | COc1ccc(NC(=S)N2CCC(N(C)CC3CCCO3)CC2)cc1Cl (stereo not given) | inactive
32 | Cc1cccc(CCn2c(=O)c3ccccc3n(Cc3cccc(F)c3)c2=O)c1 | inconclusive: 31.6 µM [inhibitor, single point]
33 | COc1ccc(C2NC(Cc3ccccc3)(C(=O)O)C3C(=O)N(c4ccccc4OC)C(=O)C23)cc1 (stereo not given) | inactive
34 | O=C(N/N=C/c1ccc(Br)s1)c1cccc([N+](=O)[O-])c1 | inactive
35 | CC1CCc2nc(NC(=O)COc3ccc(C(C)(C)C)cc3)sc2C1 (stereo not given) | inconclusive: 1.41 µM [inhibitor, full curve]
36 | O=S(=O)(Nc1cccc(-c2ccc(N3CCCCC3)nn2)c1)c1cccs1 | inactive
37 | COCCCNCCOCCOc1c(OC)cccc1OC | inactive
38 | C[C@@H](N)C1CCC(C(=O)Nc2ccncc2)CC1 (stereo not given in full) | inactive
39 | NCC(O)(CS(=O)(=O)O)c1ccc(Cl)cc1 (stereo not given) | inconclusive: 3.16 µM [inhibitor, partial curve]
40 | COc1cc(/C=C/c2ccc(O)cc2)cc(OC)c1 | inconclusive: 11.2 µM [inhibitor, partial curve]
41 | COc1ccc(C(=O)NCCc2sc(-c3cccc(F)c3)nc2C)cc1 | inconclusive: 0.708 µM [inhibitor, full curve, poor fit]
42 | CC[C@H](NC(=O)c1c(C)c(-c2ccccc2)nc2ccccc12)c1ccccc1 | inactive
43 | COCCn1c(SCC(=O)Nc2ccc(F)c(Cl)c2)nc2c(oc3ccccc32)c1=O | inactive
44 | O=C(Nc1ccccc1Oc1ccccc1)c1cc([N+](=O)[O-])ccc1Cl | inconclusive: 31.6 µM [inhibitor, partial curve, poor fit]
45 | CCOC(=O)c1c(NC(=O)c2ccoc2C)sc(C(=O)N(C)C)c1C | inactive
46 | CCOC(=O)c1ccc(NC(=O)Nc2ccc3c(c2)OCCO3)cc1 | inconclusive: 6.31 µM [inhibitor, partial curve]
47 | CC/C(=N/O)c1cnnc(SC)n1 | inactive
48 | Cc1nn(C)c(C)c1CN(C)C(=O)c1cc2nc(-c3ccco3)cc(C(F)(F)F)n2n1 | inactive

Row | SMILES | Potency
49 | COc1ccc(C(=O)n2cc(C(=O)c3cc(C)ccc3O)cn2)cc1OC | inconclusive: 39.8 µM [inhibitor, single point]
50 | CCN(c1cccc(C)c1)S(=O)(=O)c1nnc(NC(=O)c2cccs2)s1 | inconclusive: 2.82 µM [inhibitor, partial curve]
51 | O=C1CC(/C=C/c2ccc(Cl)cc2)=Nc2ccccc2N1 | inconclusive: 8.91 µM [inhibitor, full curve]
52 | C/C=C(\C)C(=O)Nc1cccc(C2=NOC3(C2)C[C@H](C(N)=O)N(C(=O)c2cc([N+](=O)[O-])cc([N+](=O)[O-])c2)C3)c1 (stereo not given in full) | inactive
53 | CCCCn1c(-c2ccc(S(=O)(=O)N3CCOCC3)cc2)csc1=Nc1ccccc1 | inconclusive: 28.2 µM [inhibitor, single point]
54 | Cn1c(SCC(=O)c2ccc(-c3ccccc3)cc2)nnc1-c1ccco1 | inconclusive: 5.01 µM [inhibitor, partial curve]
55 | Cc1ccc(Cl)cc1NC(=O)Cn1c(=O)c(CNc2ccccc2)cc2cc3c(cc21)OCCO3 | inconclusive: 28.2 µM [inhibitor, single point]
56 | CCOC(=O)N1CCN(C(=O)Nc2ccc3nc(C)c(C)nc3c2)CC1 | inconclusive: 28.2 µM [inhibitor, partial curve]
57 | COC(=O)c1cc(Nc2cc(C)nc3ncnn23)cc(C(=O)OC)c1 | inactive
58 | CN1CCN(C2=C(Cl)C(=O)N(C3CCCCC3)C2=O)CC1 | inconclusive: 28.2 µM [inhibitor, single point]
59 | Cc1cc(C)n2nc(C(=O)Nc3ccn(Cc4ccccc4C)n3)cc2n1 | inconclusive: 22.4 µM [inhibitor, partial curve]
60 | COc1ccc(C2c3c(-c4ccccc4O)n[nH]c3C(=O)N2Cc2ccco2)cc1 (stereo not given) | inactive
61 | COc1cccc(C(=O)NC(=O)Nc2ccc(-c3cc(C(F)(F)F)nn3-c3ccccc3)cc2)c1 | inactive
62 | CCOc1ccc(C(=O)OCc2cc(=O)n3nc(C4CCCCC4)sc3n2)cc1 | inconclusive: 15.8 µM [inhibitor, partial curve, poor fit]
63 | COc1cccc(C(=O)N2CCN(C(=O)c3cccc(F)c3)CC2)c1 | inactive
64 | COc1cc(/C=N/NC(=O)c2cccnc2)ccc1OC(=O)c1ccc([N+](=O)[O-])cc1 | inconclusive: 7.08 µM [inhibitor, partial curve]
65 | CCc1ccc(OCC(=O)N/N=C(\C)c2ccc3c(c2)OCCO3)cc1 | inconclusive: 12.6 µM [inhibitor, partial curve]
66 | Cc1ccc(NC(=O)CSc2nc(N)cc(=O)[nH]2)cc1S(=O)(=O)N1CCOCC1 | inactive
67 | CCc1nc(SCC(=O)N2c3ccccc3CC2C)c2c(C)c(C)sc2n1 (stereo not given) | inconclusive: 15.8 µM [inhibitor, partial curve]
68 | CC(O)/C=C/c1cccc[n+]1C (stereo not given) | inconclusive: 39.8 µM [inhibitor, single point]
69 | O=C1CCCC(O)=C1N=Nc1ccc2c(c1)OCO2 | inconclusive: 12.6 µM [inhibitor, partial curve]
70 | Cc1ccc2cc3cc(C(=O)N4CCN(C(=O)c5ccco5)CC4)sc3nc2c1 | inconclusive: 28.2 µM [inhibitor, partial curve, poor fit]
